Measured values taken from publication PMC4336329 (PLoS ONE, 2015).
Screen size: about 310,000 compounds; about 2,200 (0.71%) showed an effect of 50% or more. The effect is printed as a negative number. The list shows a part of the results.

The compounds below were run against human ether-à-go-go-related gene (hERG) potassium channel (human, UniProt Q12809) (assay: primary screen, population patch clamp on CHO cells stably expressing hERG).
Sequence of human ether-à-go-go-related gene (hERG) potassium channel (Q12809 whole entry, looked up): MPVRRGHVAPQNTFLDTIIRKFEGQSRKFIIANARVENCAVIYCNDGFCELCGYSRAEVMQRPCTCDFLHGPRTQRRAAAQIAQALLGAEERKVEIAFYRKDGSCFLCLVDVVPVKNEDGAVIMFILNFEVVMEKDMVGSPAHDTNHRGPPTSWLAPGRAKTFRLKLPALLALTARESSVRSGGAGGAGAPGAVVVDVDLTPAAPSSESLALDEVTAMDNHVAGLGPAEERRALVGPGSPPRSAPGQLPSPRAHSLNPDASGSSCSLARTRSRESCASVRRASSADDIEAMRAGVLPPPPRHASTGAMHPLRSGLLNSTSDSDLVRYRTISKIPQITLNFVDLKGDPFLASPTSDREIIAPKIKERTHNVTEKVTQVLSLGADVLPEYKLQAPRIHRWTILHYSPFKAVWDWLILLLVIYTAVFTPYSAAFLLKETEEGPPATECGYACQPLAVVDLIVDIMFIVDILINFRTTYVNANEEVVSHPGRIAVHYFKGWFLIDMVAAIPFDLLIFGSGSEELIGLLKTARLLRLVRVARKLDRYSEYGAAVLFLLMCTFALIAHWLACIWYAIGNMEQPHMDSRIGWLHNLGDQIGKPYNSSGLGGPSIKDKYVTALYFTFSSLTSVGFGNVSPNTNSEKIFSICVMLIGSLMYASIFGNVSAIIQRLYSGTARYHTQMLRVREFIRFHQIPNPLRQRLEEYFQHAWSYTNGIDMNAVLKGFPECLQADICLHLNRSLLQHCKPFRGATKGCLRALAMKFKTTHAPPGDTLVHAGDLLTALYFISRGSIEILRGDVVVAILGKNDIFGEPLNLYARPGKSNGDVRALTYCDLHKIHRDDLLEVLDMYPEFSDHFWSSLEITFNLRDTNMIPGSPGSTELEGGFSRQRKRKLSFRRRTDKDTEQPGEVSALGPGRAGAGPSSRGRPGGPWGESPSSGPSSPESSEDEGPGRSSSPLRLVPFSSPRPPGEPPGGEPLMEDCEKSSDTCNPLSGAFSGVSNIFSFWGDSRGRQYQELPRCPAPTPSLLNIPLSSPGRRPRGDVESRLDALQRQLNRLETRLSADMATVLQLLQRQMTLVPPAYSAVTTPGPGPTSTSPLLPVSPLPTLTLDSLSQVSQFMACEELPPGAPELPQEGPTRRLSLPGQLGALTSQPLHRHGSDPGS

SMILES | hERG current change (%, negative = inhibition) at 1uM [%]
O=C(Cc1cccs1)N1CCN(S(=O)(=O)c2cccc([N+](=O)[O-])c2)CC1 | 7.67
CCCCCCCC(=O)OCC(COC(=O)CCCCCCC)OC(=O)CCCCCCC | 11.2
CC(=O)c1cccc(NC(=O)CSc2ccc(-c3sc(C)nc3C)nn2)c1 | 8.54
CCOC(=O)C1CCN(C(=O)COc2cc(C)c(Br)cc2C)CC1 | 5.63
COc1ccc(OC)c(NC(=O)C2C3CCC(O3)C2C(=O)O)c1 (centres unmarked) | 10.4
N#Cc1nc(-c2ccc(OCc3ccccc3)cc2)oc1NCCCn1ccnc1 | 8.19
CCS(=O)(=O)Nc1ccc(C2=NN(C(C)=O)C(c3cccs3)C2)cc1 (centres unmarked) | 7.09
CCOC(=O)COn1c2c(c3c4no[n+]([O-])c4ccc31)CCCC2 | 8.52
O=C(N/N=C/c1cccnc1)c1cccc(Br)c1 | 16.2
CCOc1cccc(C(=O)Nc2ccc(N(CC)CC)cc2)c1 | -1.06
O=C(CCN1C(=O)C2C3C=CC(C3)C2C1=O)N1CCN(c2ccccn2)CC1 (centres unmarked) | -1.12
CCC1=NN(C(=O)Cc2ccc(OC)c(OC)c2)C(O)(C(F)(F)F)C1 (centres unmarked) | 19.9
Cc1ccc(C)c(NC(=O)CCc2nnc3ccc(NCc4ccco4)nn23)c1 | 22.2
S=C(Nc1ccccc1)Nc1cc(Cl)ccc1Oc1ccccc1 | 2.12
O=C(CCl)Nc1ccccc1Sc1ccccc1 | -7.81
COc1ccc(Nc2nc(C(F)(F)F)nc(C)c2C#N)cc1 | 8.84
COc1ccccc1OCc1cc(-c2ccccc2)no1 | 5.68
Cc1ccccc1C1c2[nH]c3ccccc3c2C[C@H]2C(=O)N(C3CC3)CC(=O)N12 (some centres unmarked) | 20
CC(=O)c1sc(NC(=O)c2ccc(C(C)(C)C)cc2)nc1C | -7.37
CCOC(=O)NCc1ccc(Cl)c(Cl)c1 | -0.0645
O=C(O)CC1C(=O)NCCN1CCCc1ccccc1 (centres unmarked) | 6.57
Cc1ccc(Cn2c(SCCN3CCCCC3)nc3c2c(=O)[nH]c(=O)n3C)cc1 | -77.5
CN(C(=O)c1sc2nc(N3CCOCC3)c3c(c2c1N)CCCC3)c1ccccc1 | 10.4

SMILES | hERG current change (%, negative = inhibition) at 1uM [%]
CCOC(=O)c1cc(-c2ccccc2)n(CC(=O)Nc2ccc(OC)c(OC)c2)c1C | 4.12
Cc1cc(NC(=O)c2ccc(F)cc2F)n(-c2nc3ccccc3[nH]2)n1 | 20.2
O=C(NCCc1ccc(Cl)cc1)C(=O)c1c[nH]c2ccccc12 | 7.93
Cc1ccc2[nH]c(=O)c(C(c3nnnn3CC3CCCO3)N3CCc4ccccc4C3)cc2c1 (centres unmarked) | -1.99
COc1cc2c(C)nc3c(c(C)nn3-c3ccccc3)c2cc1OC | 9.71
CCCN(CC(=O)Nc1ccccc1Br)CC(=O)Nc1ccc(F)c(F)c1F | 3.83
CCN1CCN(c2ccc(N)cc2C)CC1.Cl | 6.19
CN=c1sc2ccccc2n1CC(O)c1ccccc1 (centres unmarked) | 11.5
O=C(CSc1nnc(Cc2ccccc2)o1)c1ccc2c(c1)OCO2 | 1.33
Cc1nn2c3ccccc3n(Cc3ccccc3)c2nc1=O | 11.5
OCCOCCn1c(CCNc2nc(-c3ccc(Cl)cc3)cs2)nc2cc(Cl)c(Cl)cc21 | 8.6
O=S(=O)(c1ccccc1)c1nc(NCc2ccccc2)sc1Cl | 4.21
CCOC(=O)N1CCN(C(=O)c2cn(CCOC)c(=O)c3c2c2ccccc2n3C)CC1 | 13.3
CN(Cc1nc(-c2cnccn2)no1)C1CC(C)(C)NC(C)(C)C1 | 11.1
O=C(COn1nnc2ccccc21)NCC1CCCCC1 | 14.6
O=C(O)c1cc(-c2ccc(-c3ccc(F)cc3)o2)nc2ccccc12 | 5.79
Cc1ccc(NC(=O)CN2C(=O)N/C(=C/c3ccc(C)s3)C2=O)cc1 | 3.04
CC(C)CNC(=O)COC(=O)c1c2c(nc3ccccc13)/C(=C/c1cccs1)CC2 | 7.22
N#Cc1ccc(NC(=O)CSc2n[nH]c(=O)n2C2CC2)cc1 | 6.72
CC(C)C[C@@H](CN(N=O)[C@@H](Cc1ccccc1)CN(C)N=O)N(CCc1ccccc1)N=O.[Na+] | -0.916
CCC(C)NCc1ccc(C(=O)OC)o1.Cl (centres unmarked) | 21.6
CNc1ccccc1C(=O)OCC(=O)N(CCOC)c1c(N)n(CC(C)C)c(=O)[nH]c1=O | 14.4
N/C(=N\OC(=O)c1ccc2c(c1)OCO2)c1ccc(Br)cc1 | 8.11

SMILES | hERG current change (%, negative = inhibition) at 1uM [%]
O=C1CCCN1C(=O)COc1ccc([N+](=O)[O-])cc1 | 6.05
O=C(C[n+]1ccc2ccccc2c1)c1ccc(NC(=O)c2ccccc2)cc1.[Br-] | 10.8
CCN(CC1CCCN(CCc2cccc(F)c2)C1)C(=O)c1ccc(CSC)o1 (centres unmarked) | -52
Cc1ccc2cccc(NC(=S)NC(=O)c3ccn(C)n3)c2n1 | 14.4
Cn1c(SCc2cccc(F)c2)nnc1-c1ccncc1 | 20.2
COc1ccc(C2CC(c3cccs3)=NN2c2ccc(F)cc2)cc1OC (centres unmarked) | 9.8
CCOC(=O)c1ccc(N=C2SC(C(=O)Nc3ccc(C(=O)O)cc3)CC(=O)N2Cc2cccs2)cc1 (centres unmarked) | 10.7
O=C(O)CSCC(=O)NC1CCCc2ccccc21 (centres unmarked) | 11.4
CCCC(C)NC(=O)c1ccc2[nH]c3c(c2c1)CC(C)CC3 (centres unmarked) | 7.87
COC(=O)c1ccccc1NC(=O)COC(=O)C1CCCCC1 | 7.08
O=C(CCNS(=O)(=O)c1cccc2nonc12)NC1CCCc2ccccc21 (centres unmarked) | 10.2
O=c1[nH]c(-c2ccccc2)nn1-c1ccc(Br)cc1Br | 11.3
Cc1ccc(Cl)cc1S(=O)(=O)N1CCC(C(=O)NC2CCN(Cc3ccccc3)CC2)CC1 | -66.1
Cc1cc(NC(=O)CN2CCCCC2C)no1.O=C(O)C(=O)O (centres unmarked) | 12.5
CCOC(=O)C1CCCN(S(=O)(=O)c2cc3[nH]c(=O)c(=O)[nH]c3cc2C)C1 (centres unmarked) | 11.3
CC1CCN(c2nc3c(c(=O)[nH]c(=O)n3C)n2Cc2ccccc2)CC1 | 9.5
Cc1c(NC(=O)C(C)N(c2ccccc2)S(C)(=O)=O)c(=O)n(-c2ccccc2)n1C (centres unmarked) | 14.9
COCC(=O)N(Cc1cc2cc(OC)ccc2[nH]c1=O)c1ccc(C)cc1 | 6.88
O=C(c1ccc(N2CCCCC2)c([N+](=O)[O-])c1)N1CCOCC1 | -3.12
CSc1nc2ccc(NS(=O)(=O)c3cccc(Cl)c3Cl)cc2s1 | 6.02
Cc1nn(CCC(=O)NNC(=S)Nc2ccc(F)cc2)c(C)c1[N+](=O)[O-] | -5.03
CCOc1ccc2nc(SCc3ccccc3C#N)sc2c1 | 12
O=C(Nc1ccncc1)c1cccc(S(=O)(=O)N2CCCC2)c1 | -3.39

SMILES | hERG current change (%, negative = inhibition) at 1uM [%]
Cc1ccc(NC(=O)C(=O)NCCCN2CCCC2=O)c(C)c1 | 14.3
CCOC(=O)C1C(O)=CC(=O)CC1c1ccccc1 (centres unmarked) | 14.3
N#Cc1cnc(SCC(=O)N2CCCC2)nc1N | 20.6
CCCC(=O)Nc1c(C)n[nH]c1C | 9.34
O=C(CCCCCn1c(=O)[nH]c2ccsc2c1=O)N1CCN(C2CCCCC2)CC1 | -5.15
Cc1c(OCC(=O)N2CCC(C(=O)O)CC2)ccc2c3c(c(=O)oc12)CCCC3 | 5.73
Cn1c(C(=O)NCCCN2CCCCCC2)cc2c(=O)n(C)c3ccccc3c21 | 0.386
COC(=O)C1=C(c2cc3ccccc3s2)C[C@@H]2CC[C@H]1N2C(=O)N1CCC(O)CC1 | 8.36
O=C1c2cccnc2C(Nc2ccc(S(=O)(=O)N3CCCCC3)cc2)N1Cc1ccccc1 (centres unmarked) | 9.88
COCCN(CCOC)S(=O)(=O)c1ccc(Cl)nc1 | 5.1
Cl.O=C(O)CCc1nc2cc3ccccc3cc2[nH]1 | 5.42
Cc1ccc(C(=O)NC2CCS(=O)(=O)C2)cc1S(=O)(=O)N1CCCCC1 (centres unmarked) | 5.69
CC(=O)Nc1ccccc1NC(=O)c1ccc(C)c(C)c1 | 10.2
CN(C(=O)c1ccc2c(c1)SC1=NS(=O)(=O)CCN12)C(c1ccccc1)c1ccccc1 | 4.6
OCC1(CO)COC2(CCCC2)N1 | 5.59
COCCNC(=O)C(=O)N/N=C/c1ccccc1C(F)(F)F | 10.5
O=C1c2cccnc2C(=O)N1Cc1ccco1 | 3.2
COc1ccc(-c2cc([C@H]3[C@H]4C=CC[C@@H](C)[C@@H]4C(=O)N3Cc3ccccc3)ccc2F)cc1 | 18.8
CSc1ncc(CN2CCCC(C(=O)c3sccc3C)C2)cn1 (centres unmarked) | -19.2
Cc1cccc(NC(=O)CN2CCN(C(=O)c3c(C)nn(Cc4ccccc4)c3C)CC2)c1C | 0.184
